Reference: PubChem BioAssay AID1346428 (National Center for Advancing Translational Sciences (NCATS), 2018)
Among all 48,000 compounds or so, about 1,200 (2.5%) were called active. The inconclusive results got no clear call from the source; some entries with a clear call stand among them for comparison.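 Rule for the calls: active = activation of at least 60% and not above a set upper limit (about 1 call in 100 departs from these limits); inconclusive = activation of 40% to 60%, or above that upper limit; inactive = activation under 40%.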

Each molecule was assayed against Probable G-protein coupled receptor 32 (Homo sapiens) (UniProt O75388) (assay: qHTS for Agonists of Human Resolvin D1 Receptor DRV1). Details: CHO-K1 GPR32 beta-arrestin PathHunter luminescence, 90 min; at 76.9 µM; active compounds read high; zero percent set by DMSO-only wells.
Excerpt: Endogenous resolution of inflammation is known to be transduced through various GPCRs and their natural mediators of lipid nature. Resolvin D1 (RvD1) is one of the active players in resolution of acute inflammation through regulation of anti-inflammatory pathways; it is known to enhance phagocytosis of human macrophages, limits neutrophils infiltration, etc. […] The search for GPR32-activating small molecules with anti-inflammatory effects similar to its natural omega-3 derivative ligand in order to use them as research tools for further studies of inflammation and its resolution was the goal of this screening project. For primary screening assay, we used CHO-K1 GPR32 beta-arrestin cell line (DiscoveRx, #93-0321C2A) and the PathHunter(R) beta-Arrestin Assay (DiscoveRx) which measures recruitment of beta-arrestin to the GPR32 and generates chemiluminescent signal. These engineered cells stably transfected with GPR32 co-express GPR32-fused small 42-amino acid fragment of beta-Gal called ProLinktrade mark, and […] -tagged beta-Arrestin fusion protein. When GPR32 is activated by a ligand, it stimulates binding of beta -Arrestin to ProLink-tagged GPR32, and two parts of beta-Gal complement forming a functional enzyme. Upon substrate (PathHunter(R) Detection reagent) addition, beta-Gal hydrolyzes it and generates a chemiluminescent signal.
The cells were thawed and plated in thawing media containing F-12 HAM (Invitrogen, #11765-054), 10% FBS (Invitrogen, #10082), 1x Glutamine, and 1x Pen/Strep onto the 175-mm flask for 24 hours. Then, thawing media was replaced with Growth media which contains 800microg/mL Geneticin (Invitrogen, #10131) and 300microg/mL Hygromycin B (Invitrogen, #10687) in addition to described above. For the assay, the cells were harvested at ~80% confluent stage with Cell Dissociation buffer (Gibco, #13151), and seeded at 2,500 cells/ 3microL/well in assay media (PathHunter(R) Cell Plating Reagent, DiscoverX, #93-0563R1B) using MultiDrop Combi dispenser (Thermo Scientific, Logan, UT) onto white solid bottom tissue culture-treated 1536-well plates (Greiner # 789173-F) and allowed to attach overnight at 37 degrees C, 95% humidity, 5% CO2, . Next, 23nL/well of compound solutions in DMSO were added with a Pin Tool (Kalypsis, San Diego, CA) to the assay plates. As the basal control (EC0), 23 nL/well of DMSO was used on each plate. The cells were incubated in the presence of compounds or DMSO for 90 minutes at 37 degrees C, 5% CO2. Subsequently, 1.5microL/well of PathHunter(R) Detection Reagent prepared per the manufacturer's instructions was added to the assay plates with BioRAPTR FRDtrade mark dispenser (Beckman Coulter, San Francisco, CA) and incubated for 1 hour at ambient temperature prior to the measurement of the luminescent signal on ViewLux(R) uHTS Microplate Imager (Perkin Elmer, Waltham, MA).

UniProt O75388, sequence (O75388 whole entry, looked up): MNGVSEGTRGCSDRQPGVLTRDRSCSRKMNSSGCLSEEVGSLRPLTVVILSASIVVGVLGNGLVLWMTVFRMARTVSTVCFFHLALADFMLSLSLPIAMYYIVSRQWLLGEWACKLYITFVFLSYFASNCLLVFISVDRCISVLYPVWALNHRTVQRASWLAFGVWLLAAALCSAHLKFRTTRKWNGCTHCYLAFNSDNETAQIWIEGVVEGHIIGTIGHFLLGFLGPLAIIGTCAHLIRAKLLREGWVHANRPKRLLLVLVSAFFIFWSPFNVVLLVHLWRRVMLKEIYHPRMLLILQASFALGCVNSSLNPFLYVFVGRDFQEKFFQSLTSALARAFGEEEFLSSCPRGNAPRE

Row | Structure (SMILES) | activation
1 | COc1cccc(CNCCSc2nnnn2C)c1OCc1ccc(Cl)cc1Cl | inconclusive: 58.1%
2 | Cc1cccn2cc(-c3cccc(NS(=O)(=O)c4ccc(Cl)c(Cl)c4)c3)nc12 | inconclusive: 55.5%
3 | O=C(Cn1c(=O)oc2cc(S(=O)(=O)N3CCCC3)ccc21)NCc1ccc(Cl)cc1 | inconclusive: 53.2%
4 | CCOC(=O)c1cccc(NC(=O)c2cc3cc4cc(OC)ccc4nc3s2)c1 | active: 101%
5 | CCOC(=O)N1CCc2c(sc(NCc3cccs3)c2C(=O)Nc2cc(Cl)ccc2OC)C1 | inactive: -6.16%
6 | CCOc1cc(C(Nc2cc(C)ccn2)c2ccc3cccnc3c2O)ccc1OC (centres undefined) | inactive: 1.99%
7 | COc1ccc(C(=O)NCCc2csc(-c3ccc(Cl)cc3)n2)c(OC)c1 | active: 70.2%
8 | CCC(C)c1ccccc1OCC(=O)Nc1ccc(S(=O)(=O)Nc2cc(C)on2)cc1 (centres undefined) | inconclusive: 253%
9 | O=C(c1ccccc1Cl)N1CCC(c2nc3ccccc3s2)CC1 | active: 77.9%
10 | Cc1ccc(CNS(=O)(=O)c2ccc3[nH]c4c(c3c2)CCCCC4)cc1 | inconclusive: 56.2%
11 | Cc1cccc(-c2nnc(SCc3cc(=O)c4cccc(Cl)c4[nH]3)n2C)c1 | inconclusive: 221%
12 | O=C1NC(=O)/C(=C/c2ccc3c(c2)OC(F)(F)O3)S1 | inactive: 24.4%
13 | Cc1ccc(CNC(=O)c2nc(SCc3ccccc3F)ncc2Cl)cc1 | inactive: -33.8%
14 | O=S(=O)(Nc1ccc(Br)cc1F)c1ccc2nc(-c3ccccc3)[nH]c2c1 | inconclusive: 145%
15 | CCOC(=O)c1ccc(NC(=O)C2CCN(S(=O)(=O)c3ccc4c(c3)CCCC(=O)N4)CC2)cc1 | active: 68.9%
16 | CC(C)c1ccc(NC(=O)c2cc3sc(Cl)cc3n2C)cc1 | inconclusive: 54.8%
17 | CNC(=O)c1ccc(-c2nc(CN3CCc4ccccc43)c(C)o2)cc1 | inconclusive: 131%
18 | Cc1cc(C)cc(OC(=O)c2cc(-c3ccc4c(c3)OCCO4)on2)c1 | inactive: -1.32%
19 | CCOc1ccc(CNS(=O)(=O)c2ccc3[nH]c4c(c3c2)CCCC4)cc1OC | inconclusive: 129%
20 | O=C(CCN1CCC(c2ccccc2)C1)c1ccc2c(c1)OCCO2 (centres undefined) | inconclusive: 121%
21 | COC(=O)c1ccc(C2Nc3c(C)cc(C)cc3C3C=CCC32)cc1 (centres undefined) | active: 79%
22 | Cc1cccc(C(=O)Nc2ccc(-c3nc4ccccc4s3)cc2Cl)c1 | active: 91.5%
23 | Cc1cc(C)cc(Nc2cc(-c3ccccc3)nc(C)n2)c1 | inconclusive: 52.5%
24 | N#CC1=C2SCN(C3CCCCC3)CN2C(=O)CC1c1ccc(F)cc1 (centres undefined) | inconclusive: 54.4%
25 | COc1ccc(-c2nc(C)c(CCNC(=O)c3ccccc3Br)s2)cc1OC | inactive: -13.2%
26 | Cc1ccc(NS(=O)(=O)c2ccc3[nH]c4c(c3c2)CCCCC4)cc1 | inactive: 13.8%
27 | Cc1ccc(C)c(N(C)S(=O)(=O)c2ccc3[nH]cc(C(=O)NC4CCCC4)c(=O)c3c2)c1 | inconclusive: 50.8%

Row | Structure (SMILES) | activation
28 | Cc1c(CNCCCc2ccccc2)c(C(=O)O)c(C)n1Cc1cccc(Cl)c1 | inactive: -22.9%
29 | CCOc1ccc(-c2cc(CCCC(=O)NCCc3ccc(SC)cc3)no2)cc1 | inactive: 17.4%
30 | Cc1ccc(CNC(=O)c2cc(NS(=O)(=O)c3ccc(C)cc3)ccn2)cc1 | inconclusive: 58.3%
31 | COc1ccc(Cl)cc1NC(=O)COc1cccc2c(=O)n(C)ccc12 | inactive: -2.88%
32 | COC(=O)c1ccc(NC(=O)CN(C)S(=O)(=O)c2ccc3c(c2)CCCC(=O)N3)cc1 | inconclusive: 149%
33 | COc1ccc(NC(=O)C2CCN(c3ccc(Sc4ccc(C)cc4)nn3)CC2)cc1 | active: 63.7%
34 | Cc1ccccc1-c1nc(CS(=O)(=O)CC(=O)Nc2c(C)cccc2C)c(C)o1 | inconclusive: 204%
35 | Cc1ccc(CCNC(=O)CCn2nc(-c3ccccc3)ccc2=O)cc1 | inconclusive: 50.9%
36 | Cc1nc(Nc2ccc(Cl)cc2)cc(-c2ccccc2)n1 | active: 66.8%
37 | CCc1ccc(NC(=O)Cn2nc3c4ccccc4n(Cc4ccccc4)cc-3c2=O)cc1 | active: 84.1%
38 | O=C(Nc1ccc(OC(F)(F)F)cc1)c1nc2ccccc2nc1N1CCCCC1 | inactive: -4.89%
39 | COc1ccc2sc(N(Cc3cccnc3)C(=O)c3ccc4c(c3)OCCO4)nc2c1 | inactive: -6.53%
40 | COc1cc(OC)nc(O[C@H](C(=O)O)C(OC)(c2ccccc2)c2ccccc2)n1 | inactive: -50.6%
41 | COCCCNc1nc(NCc2cccc(Cl)c2)c2cnn(C)c2n1 | inconclusive: 180%
42 | O=C(Nc1cccc(NC(=O)c2ccccc2F)c1)c1ccccc1 | inconclusive: 124%
43 | CC1(C)[C@@H](OC(=O)CCC(=O)O)CC[C@]2(C)[C@H]3C(=O)C=C4[C@@H]5C[C@@](C)(C(=O)O)CC[C@]5(C)CC[C@@]4(C)[C@]3(C)CC[C@@H]12 | inconclusive: 140%
44 | CCOc1ccc(-c2ncnn2-c2sc3c(c2C#N)CCCCC3)cc1 | active: 102%
45 | O=S(=O)(Nc1cc(F)ccc1F)c1ccc2[nH]c3c(c2c1)CCCCC3 | inactive: 39.9%
46 | CC(C)c1ccc(NS(=O)(=O)c2ccc3[nH]cc(C(=O)NCC4CCCO4)c(=O)c3c2)cc1 (centres undefined) | inconclusive: 125%
47 | CCOc1ccc(NC(=O)c2sc3ccccc3c2Cl)cc1 | active: 69.9%
48 | COc1ccc(-c2nc(C)c(CCNC(=O)c3c(F)cccc3F)s2)cc1 | active: 80.3%
49 | CCOc1ccccc1CNCc1c(C(=O)O)n(Cc2ccc(F)cc2)c2cc(C)ccc12 | inactive: -3.9%
50 | Cc1ccc(-n2nc3cc(C)c(NC(=O)COc4ccccc4)cc3n2)cc1 | inconclusive: 51.2%
51 | Cc1ccc(C(=O)Oc2ccc(C(O)CNC(C)(C)C)cc2OC(=O)c2ccc(C)cc2)cc1 (centres undefined) | inconclusive: 225%
52 | Cc1ccc(C)c(NC(=O)CCCn2nc(C)c3sc4ccccc4c3c2=O)c1 | inactive: -11%
53 | CCCN(CCC)CCNC(=O)c1cc2c(-c3ccccc3F)nn(C)c2s1 | inconclusive: 58.3%
54 | COc1ccccc1N1CCN(S(=O)(=O)c2ccc(F)c(C(=O)Nc3ccc(C)c(F)c3)c2)CC1 | inactive: -6.46%
